In patent publication US10299477B2 (priority 2015, dated 2019):

Columns and labels:
Format in all cases: in vivo
[1] = tested on: Alternaia brassicicola; test: Test Example C: Alternaria sooty spot on cabbage; details: for Test C (control value class, Alternaria sooty spot on cabbage): in vivo; for Test C control value (Alternaria sooty spot on cabbage): preventive, control value class; for Test C (control value class): Alternaria sooty spot on cabbage
From the text: [Test Example C] Alternaria Sooty Spot on Cabbage
Seeds of a test plant (cabbage variety: Shikidori) were planted followed by cultivating until the cotyledons extended.

[2] = tested on: Botrytis cinerea; test: Test Example B: Gray mold on tomato; details: for Test B (control value class, gray mold on tomato): in vivo; for Test B control value (gray mold on tomato): preventive, control value class
From the text: [Test Example B] Gray Mold on Tomato
Seeds of a test plant (tomato variety: Oogata Fukuju) were planted followed by cultivating until three to five first leaves (true leaves) appeared.

[3] = tested on: Puccinia recondita; test: Test Example E: Brown rust on wheat; details: for Test E (control value class, brown rust on wheat): in vivo; for Test E control value (brown rust on wheat): preventive, control value class
From the text: [Test Example E] Brown Rust on Wheat

[4] = tested on: Blumeria graminis f sp. hordei; test: Test Example D: Powdery mildew on barley; details: for Test D (control value class, powdery mildew on barley): in vivo; for Test D control value (powdery mildew on barley): preventive, control value class
From the text: [Test Example D] Powdery Mildew on Barley
After the sprayed dilutions were dried, conidia of Blumeria graminis f sp. hordei were inoculated to the plants by shaking off.

[5] = tested on: Plasmopara viticola; test: Test Example G: Downy mildew on vine; details: for Test G (control value class, downy mildew on vine): 250 ppm, sprayed 2.5 ml/pot before inoculation; for Test G control value (downy mildew on vine): 250 ppm spray (2.5 ml/pot), preventive, control value class; for Test G (control value class): 250 ppm spray
From the text: [Test Example G] Downy Mildew on Vine
Seeds of a test plant (grape variety: Neomuscat) were planted followed by cultivating until three to four first leaves appeared. […] After the sprayed dilutions were dried, a zoosporangia suspension (1-2×10^4 zoosporangia/ml) of Plasmopara viticola was inoculated to the plants by spraying.

[6] = evaluated 7-10 days after inoculation
[7] = gray mold on tomato, Botrytis cinerea, 250 ppm spray
[8] = brown rust on wheat, Puccinia recondita, 250 ppm spray
[9] = powdery mildew on barley, 250 ppm spray
[10] = downy mildew on vine, Plasmopara viticola, 7-10 days after inoculation

Compound | Test C (control value class, Alternaria sooty spot on cabbage) [1] | Test B (control value class, gray mold on tomato) [2] | Test E (control value class, brown rust on wheat) [3] | Test D (control value class, powdery mildew on barley) [4] | Test G (control value class, downy mildew on vine) [5, 6] | Test C (control value class) ([1]; 250 ppm spray) | Test B (control value class) [2, 7] | Test E (control value class) [3, 8] | Test D (control value class) [4, 9] | Test G (control value class) [5, 10] | further results
Cc1cc(-c2cccc(F)c2F)c(-c2c(F)cc(F)cc2F)n(C)c1=O [Compound 564] | H (H shows more than 50% of control values) | H (H shows more than 50% of control values) | H (H shows more than 50% of control values) | H (H shows more than 50% of control values) | H (H shows more than 50% of control values) |  |  |  |  |  | 
CCn1c(-c2c(F)cncc2F)c(-c2cc(OC)cc(OC)c2Br)ccc1=O [Compound 216] |  |  |  |  |  |  |  |  |  |  | Test C control value (Alternaria sooty spot on cabbage) ([1]; 250 ppm spray): H (H shows more than 50% of control values); Test B control value (gray mold on tomato) ([2]; 250 ppm spray): H (H shows more than 50% of control values); Test E control value (brown rust on wheat) ([3]; 250 ppm spray): H (H shows more than 50% of control values); Test D control value (powdery mildew on barley) ([4]; 250 ppm spray): H (H shows more than 50% of control values); Test G control value (downy mildew on vine) ([5]; 7-10 days after inoculation): H (H shows more than 50% of control values)
CCn1c(-c2c(F)cccc2F)c(-c2ccc(C)cc2)ccc1=O [Compound 269] |  |  |  |  |  |  |  |  |  |  | Test C control value (Alternaria sooty spot on cabbage) ([1]; 250 ppm spray): H (H shows more than 50% of control values); Test B control value (gray mold on tomato) ([2]; 250 ppm spray): H (H shows more than 50% of control values); Test E control value (brown rust on wheat) ([3]; 250 ppm spray): H (H shows more than 50% of control values); Test D control value (powdery mildew on barley) ([4]; 250 ppm spray): H (H shows more than 50% of control values); Test G control value (downy mildew on vine) ([5]; 7-10 days after inoculation): H (H shows more than 50% of control values)
CCOc1cc(F)c(-c2c(-c3cccc(OC)c3Cl)cc(Cl)c(=O)n2CC)c(F)c1 [Compound 641] | H (H shows more than 50% of control values) | H (H shows more than 50% of control values) | H (H shows more than 50% of control values) | H (H shows more than 50% of control values) | H (H shows more than 50% of control values) |  |  |  |  |  | 
CCn1c(-c2c(F)cc(F)cc2F)c(-c2ccc(C)cc2Cl)ccc1=O [Compound 626] | H (H shows more than 50% of control values) | H (H shows more than 50% of control values) | H (H shows more than 50% of control values) | H (H shows more than 50% of control values) | H (H shows more than 50% of control values) |  |  |  |  |  | 
CCn1c(-c2c(F)cccc2F)c(-c2cc(F)ccc2F)cc(Cl)c1=O [Compound 481] |  |  |  |  |  | H (H shows more than 50% of control values) | H (H shows more than 50% of control values) | H (H shows more than 50% of control values) | H (H shows more than 50% of control values) | L (L shows 50% or less of control values) | 
COc1ccc(Cl)c(-c2cc(Br)c(=O)n(CC(F)F)c2-c2c(F)cccc2F)c1 [Compound 198, 3-bromo-5-(2-chloro-5-methoxyphenyl)-1-(2,2-difluoroethyl)-6-(2,6-difluorophenyl)pyridine-2(1H)-one] |  |  |  |  |  |  |  |  |  |  | Test C control value (Alternaria sooty spot on cabbage) ([1]; 250 ppm spray): H (H shows more than 50% of control values); Test B control value (gray mold on tomato) ([2]; 250 ppm spray): H (H shows more than 50% of control values); Test E control value (brown rust on wheat) ([3]; 250 ppm spray): H (H shows more than 50% of control values); Test D control value (powdery mildew on barley) ([4]; 250 ppm spray): H (H shows more than 50% of control values); Test G control value (downy mildew on vine) ([5]; 7-10 days after inoculation): H (H shows more than 50% of control values)
CCn1c(-c2c(F)cc(OC)cc2F)c(-c2cc(F)ccc2Cl)cc(Cl)c1=O [Compound 386] |  |  |  |  |  | H (H shows more than 50% of control values) | H (H shows more than 50% of control values) | H (H shows more than 50% of control values) | H (H shows more than 50% of control values) | L (L shows 50% or less of control values) | 
CN1C(=O)CCC(c2cc(F)cc(F)c2F)=C1c1c(F)cccc1F [Compound 437] |  |  |  |  |  | L (L shows 50% or less of control values) | H (H shows more than 50% of control values) | H (H shows more than 50% of control values) | H (H shows more than 50% of control values) | L (L shows 50% or less of control values) | 
CCn1c(-c2c(F)cc(OC)cc2F)c(-c2cc(F)cc(F)c2Br)ccc1=O [Compound 818] |  |  |  |  |  |  |  |  |  |  | Test C (control value class) ([1]; control value=100{1-(n/3)}): H (H shows more than 50% of control values); Test B (control value class) ([2]; Gray mold on tomato, control value=100{1-(n/3)}): H (H shows more than 50% of control values); Test E (control value class) ([3]; Brown rust on wheat, control value=100{1-(n/3)}): H (H shows more than 50% of control values); Test D (control value class) ([4]; Powdery mildew on barley, control value=100{1-(n/3)}): H (H shows more than 50% of control values); Test G (control value class) ([5]; Downy mildew on vine, 2.5 ml/pot, evaluated 7-10 days after inoculation): H (H shows more than 50% of control values)
CCn1c(-c2c(F)cccc2F)c(-c2cc(F)ccc2F)ccc1=O [Compound 478] |  |  |  |  |  | H (H shows more than 50% of control values) | H (H shows more than 50% of control values) | H (H shows more than 50% of control values) | H (H shows more than 50% of control values) | H (H shows more than 50% of control values) | 
CCn1c(-c2c(F)cc(OC)cc2F)c(-c2ccc(F)cc2Cl)cc(Cl)c1=O [Compound 593] | H (H shows more than 50% of control values) | H (H shows more than 50% of control values) | H (H shows more than 50% of control values) | H (H shows more than 50% of control values) | H (H shows more than 50% of control values) |  |  |  |  |  | 
Cn1c(-c2c(F)cccc2F)c(-c2c(F)cccc2Cl)ccc1=O [Compound 398] |  |  |  |  |  | H (H shows more than 50% of control values) | H (H shows more than 50% of control values) | H (H shows more than 50% of control values) | H (H shows more than 50% of control values) | H (H shows more than 50% of control values) | 
COc1cc(F)c(-c2c(-c3cc(OC)ccc3Cl)cc(Cl)c(=O)n2C)c(F)c1 [Compound 722] | H (H shows more than 50% of control values) | H (H shows more than 50% of control values) | H (H shows more than 50% of control values) | H (H shows more than 50% of control values) | H (H shows more than 50% of control values) |  |  |  |  |  | 
Cc1cc(F)c(-c2c(-c3cc(F)ccc3Cl)ccc(=O)n2C)c(F)c1 [Compound 690] | H (H shows more than 50% of control values) | H (H shows more than 50% of control values) | H (H shows more than 50% of control values) | L (L shows 50% or less of control values) | L (L shows 50% or less of control values) |  |  |  |  |  | 
